# In PubChem BioAssay AID624417 (National Center for Advancing Translational Sciences (NCATS), 2012):
# Hit rate of the full screen: of about 410,000 compounds, about 6,400 (1.6%) were called active. The shares of active, inactive and inconclusive entries below differ from those in the screen. The call rests on the fitted dose curve; in most records, active means well fitted inhibition curve with a large enough effect; inconclusive means small, poorly fitted or top-dose-only effect; inactive means no such curve, though single readings can be large or run the other way. No potency is given beside an inconclusive call; the fits are too rough.
# Molecular target: Glucagon-like peptide 1 receptor (Homo sapiens) (UniProt P43220)
# Experiment: qHTS of GLP-1 Receptor Inverse Agonists (Inhibition Mode); further: nearly all actives have a fitted effect of over 55% in size
# Settings: HEK293 GLP-1R CRE-luciferase, luminescence, 24 h, GLP-1R form is constitutively active; series mostly up to 38.3 µM
# Method in brief: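 Luminescence readout: a drop in cAMP-driven luciferase signal flags inverse agonism at a constitutively active GLP-1R stably expressed in HEK293. Compound exposure lasted 24 hr at 37 deg C, 5% CO2.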
# Potency means the concentration at half of the fitted maximal effect; tags describe the fitted curve by direction and shape.
# UniProt P43220, sequence (P43220 whole entry, looked up): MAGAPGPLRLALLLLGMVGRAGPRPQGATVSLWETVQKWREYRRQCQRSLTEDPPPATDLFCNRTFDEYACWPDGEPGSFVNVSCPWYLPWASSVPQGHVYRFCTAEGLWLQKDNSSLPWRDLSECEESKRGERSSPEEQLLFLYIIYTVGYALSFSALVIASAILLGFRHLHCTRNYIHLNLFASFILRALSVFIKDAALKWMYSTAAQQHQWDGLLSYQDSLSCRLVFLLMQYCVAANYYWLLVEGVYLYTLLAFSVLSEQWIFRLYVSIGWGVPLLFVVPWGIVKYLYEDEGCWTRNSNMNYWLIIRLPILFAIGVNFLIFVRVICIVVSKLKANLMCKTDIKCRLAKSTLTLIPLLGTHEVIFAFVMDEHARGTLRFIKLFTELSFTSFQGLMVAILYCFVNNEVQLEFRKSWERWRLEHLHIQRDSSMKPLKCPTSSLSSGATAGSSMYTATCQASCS
row,SMILES,Potency
1,O=C(C[C@H]1C/C=C\CC[C@H](Cc2ccc(F)cc2)C(=O)O[C@H](c2ccccc2)CNC1=O)N[C@H](CO)Cc1ccccc1,"inconclusive [inhibitor, single point]"
2,COc1ccc2cc(-c3csc(-c4cccnc4)n3)ccc2c1,inactive
3,Cc1cc(C)nc(NC(=O)/C=C/c2ccccc2Cl)n1,inactive
4,Cc1ccc(CN2CCC(c3cc(-c4ccc(Cl)cc4)n[nH]3)CC2)cc1,"inconclusive [inhibitor, full curve, poor fit]"
5,Cc1ccc(CN2CC[C@H]3C=CCc4cccc(c43)C2)cc1,"inconclusive [inhibitor, single point]"
6,Cc1cc(C)cc(OC(C)C(=O)Nc2ccccc2C(=O)NCc2cccnc2)c1 (stereo unspecified),"inconclusive [inhibitor, single point]"
7,CCC/C(O)=C1\C(=O)CC(c2ccccc2)CC1=NCCc1c(C)[nH]c2ccccc12 (stereo unspecified),"inconclusive [inhibitor, single point]"
8,CN1CCC2(CC1)Nc1nc(SCc3ccc(Cl)cc3)nn1C1=C2CN(C)CC1,"inconclusive [inhibitor, partial curve, poor fit]"
9,CCc1cccc(C)c1NS(=O)(=O)c1cccs1,"inconclusive [inhibitor, single point]"
10,O=C(CSC1=NC2(CCCCCC2)N=C1c1ccccc1)Nc1ccc2c(c1)OCCO2,"inconclusive [inhibitor, single point]"
11,COc1ccccc1C(=O)Nc1nnc(SCC(=O)NCc2ccco2)s1,"inconclusive [inhibitor, partial curve, poor fit]"
12,CN(C)S(=O)(=O)c1ccc(NC(=O)CSc2nc3ccccc3n2-c2ccccc2)cc1,"inconclusive [inhibitor, partial curve, poor fit]"
13,CC(=O)Nc1ncc(Cc2cccc(Cl)c2)s1,"inconclusive [inhibitor, partial curve, poor fit]"
14,Cc1ccccc1C(=NCCCN(C)C)c1ccccc1C,"inconclusive [inhibitor, single point]"
15,Cc1c(NS(=O)(=O)c2cccc(C(=O)Nc3ccc(SC(F)F)cc3)c2)c(=O)n(-c2ccccc2)n1C,"inconclusive [inhibitor, single point]"
16,COC(=O)c1ccc(C(=O)OC)c(NC(=S)N2CCN(c3cccc(Cl)c3)CC2)c1,"inconclusive [inhibitor, single point]"
17,O=C(Nc1ccc(Br)cc1)c1cccc(S(=O)(=O)Nc2cnc3ccccc3c2)c1,inactive
18,Cc1cc(=O)oc2cc(OCC3CC(c4ccc(N(C)C)cc4)=NO3)ccc12 (stereo unspecified),inactive
19,Cc1c(Cl)cccc1NC(=O)CN1C(=O)COc2ccc(S(=O)(=O)Nc3ccccc3)cc21,"inconclusive [inhibitor, single point]"
20,COc1ccc(-c2c([C@H]3[C@@H]4C=CCC[C@@]4(C)C(=O)N3Cc3ccccc3)ccc3ccccc23)cc1OC,"inconclusive [inhibitor, single point]"
21,CN1CCCC(n2nc(Cc3ccc(Cl)cc3)c3ccccc3c2=O)CC1 (stereo unspecified),"inconclusive [inhibitor, partial curve, poor fit]"

row,SMILES,Potency
1,CC(Oc1ccccc1)C(=O)N1CCN=C1SCc1ccccc1 (stereo unspecified),"inconclusive [inhibitor, single point]"
2,O=c1[nH]nc(Br)c(=O)n1C(c1ccccc1)c1ccccc1,"inconclusive [inhibitor, single point]"
3,Cc1ccc(NC(=O)CCl)cc1S(=O)(=O)N1CCCCCC1,"inconclusive [inhibitor, single point]"
4,O=C(NC1(Cc2ccccc2)CCN(Cc2ccc(-c3ccccc3)cc2)C1=O)c1ccccc1 (stereo unspecified),"inconclusive [inhibitor, partial curve, poor fit]"
5,CC(C)COC(=O)c1cccc2c1-c1ccccc1/C2=N\O,"inconclusive [inhibitor, single point]"
6,O=C(Nc1ccc(F)cc1F)c1cc2n(n1)C(C(F)(F)F)C1CCCCC1N2 (stereo unspecified),"inconclusive [inhibitor, full curve, poor fit]"
7,CN(C)C(=O)c1ccc(NC(=O)c2cccc(S(=O)(=O)N3CCN(Cc4ccccc4)CC3)c2)cc1,"inconclusive [inhibitor, partial curve]"
8,CCOc1ccc2nc(SCC(=O)NC(=O)NCc3ccco3)[nH]c2c1,"inconclusive [inhibitor, single point]"
9,O=C(CCCc1c[nH]c2ccccc12)NCc1ccccc1F,"inconclusive [inhibitor, partial curve]"
10,Cc1ccc(C)c(NC(=S)NC(NC(=O)OCc2ccccc2)C(Cl)(Cl)Cl)c1 (stereo unspecified),"inconclusive [inhibitor, partial curve, poor fit]"
11,COc1ccc(NC(=O)c2cn(-c3ccccc3)nc2-c2ccc(C)cc2)cc1,active: 7.94 µM
12,CCCCCCCCN1[C@@H](CC(=O)OCC)c2ccc(C(F)(F)F)cc2S1(=O)=O,active: 10 µM
13,O=C(O)c1ccc(Cl)c(S(=O)(=O)N(Cc2ccccc2)c2ccc(Cl)cc2)c1,"inconclusive [inhibitor, single point]"
14,Cc1nc2c(OCCC3CCCCC3)cccn2c1N(C)C(=O)CCC1CCCC1,"inconclusive [inhibitor, single point]"
15,CCCCn1nnnc1C(c1ccccc1)N1CCN(c2c(Cl)cncc2Cl)CC1 (stereo unspecified),"inconclusive [inhibitor, single point]"
16,Cc1ccccc1S(=O)(=O)N1[C@@H](c2ccc(Br)cc2)C(C(=O)O)=CC[C@H]1c1ccc(Cl)cc1,"inconclusive [inhibitor, partial curve, poor fit]"
17,C=Cc1ccc(Cn2c(C)c(C(=O)NCc3cccc(C)c3)sc2=O)cc1,"inconclusive [inhibitor, partial curve, poor fit]"
18,COc1cccc(N2CCN(C(=O)c3ccc(-c4ccccc4)cc3)CC2)c1,"inconclusive [inhibitor, partial curve, poor fit]"
19,Cc1cccc(Nc2nnc(SCC(=O)NC3CCCc4ccccc43)s2)c1 (stereo unspecified),"inconclusive [inhibitor, partial curve, poor fit]"
20,CC(C)Sc1nnc(CNC(=O)C23CC4CC(CC(C4)C2)C3)n1Cc1ccccc1,"inconclusive [inhibitor, full curve, poor fit]"
21,COc1ccc(S(=O)(=O)N2CCC(n3c(C(F)(F)F)nc4cccnc43)CC2)cc1OC,inactive

row,SMILES,Potency
1,COCc1ccc(CN2CCCCC2C(=O)Nc2ccc(Oc3ccccc3)nc2)o1 (stereo unspecified),"inconclusive [inhibitor, single point]"
2,O=C(COc1ccccc1O)NNc1ccccc1,"inconclusive [inhibitor, full curve, poor fit]"
3,COc1ccc(OC)c(NC(=O)Cc2coc3ccc4ccccc4c23)c1,"inconclusive [inhibitor, partial curve, poor fit]"
4,O=C1Cc2ccccc2Sc2c(OCCN3CCCCC3)cccc21,"inconclusive [inhibitor, partial curve, poor fit]"
5,O=C(CSc1nnc(-c2cccnc2)s1)Nc1cccc(C(=O)O)c1,"inconclusive [inhibitor, partial curve, poor fit]"
6,O=C(NCCCc1ccccc1)c1cc(COc2ccc(F)cc2Cl)on1,"inconclusive [inhibitor, partial curve, poor fit]"
7,CCOC(=O)CSc1nc2ccc(C)cc2cc1C#N,inactive
8,CCc1ccc(-c2csc(NC(=O)C3CCCO3)c2C(=O)OC(C)C)cc1 (stereo unspecified),active: 1.26 µM
9,Cn1ccc2c(-c3ccc4c(c3)OCCO4)cc3c(c21)C1CCC3O1 (stereo unspecified),"inconclusive [inhibitor, single point]"
10,COc1cc(C(c2c(C(=O)O)[nH]c3ccccc23)c2c(C(=O)O)[nH]c3ccccc23)ccc1OCc1ccccc1,"inconclusive [inhibitor, partial curve, poor fit]"
11,CCc1nc2ccc(C(=O)NCc3ccc4c(c3)OCO4)cn2c1N(CCC(C)C)CCN(C)C,"inconclusive [inhibitor, single point]"
12,COc1ccc(C(=O)CN2C(=O)N(c3ccc(C(C)=O)cc3)S(=O)(=O)c3ccccc32)cc1,inactive
13,O=C(CSc1nc(-c2ccccc2)no1)N1CCCCC1,inactive
14,COc1ccc2nc(C)cc(Sc3nc4ccccc4s3)c2c1,"inconclusive [inhibitor, single point]"
15,Cc1cccc(N2CCN(CC(=O)Nc3ccc(S(=O)(=O)N4CCOCC4)cc3)CC2)c1C,active: 11.2 µM
16,C=CCn1c(P(=O)(O)c2ccccc2)nc2ccccc21,inactive
17,CNC(=S)N/N=C(\C)c1cccc([N+](=O)[O-])c1,"inconclusive [inhibitor, single point]"
18,COc1ccc(Br)cc1C1=CC(=O)C[C@H](c2ccc(F)cc2)C1,"inconclusive [inhibitor, single point]"
19,Brc1ccc(-c2n(-c3ccccn3)c3ccccc3[n+]2-c2ccccn2)cc1,"inconclusive [inhibitor, single point]"
